Laboratory results from the supplement of paper PMC10126150.
Values marked as one replicate rest on one cluster of the flow cell; about a third of the high ones do not repeat.

test system: ATP; experiment: switch fluorescence ratio, 500 uM ATP over buffer (Cy3 cluster intensity, sum of 5 cycles each) (fold (ratio)); higher = stronger signal-on switching upon ATP binding; sequences stand for … in TCGTCGGCAGCGTCAGATGTGTATAAGAGACAGTTTTTTTTTTTTTTTTTTTTTTTTT…TC; settings: aptamer strand: ATP DNA aptamer (quencher-CACCTGGGGGAGTATTGCGGAGGAAGG + anchor), 100 nM annealed; ATP concentration: 500 uM; one replicate
Summary of the method: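 Cy3-labelled switching-strand clusters on a modified Illumina MiSeq flow-cell were annealed to 100 nM quencher-labelled ATP aptamer and imaged first in selection buffer, then after 15 min with 500 uM ATP at 22 °C. NaOH stripping and re-annealing separated each of five buffer/ATP cycles, and clusters outside 100-1000 RFU were excluded. The fluorescence ratio sums target-cycle Cy3 intensity over buffer-cycle Cy3 intensity per cluster and averages it per switch-domain sequence.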
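Further: ATP exposure 15 min at 22 °C before imaging.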

Q: How did the switch fluorescence ratio turn out when GGCACGGACA was run?
A: 1.21

Q: For GGCACTGATC, which switch fluorescence ratio is on record?
A: 1.07

Q: How did the switch fluorescence ratio turn out when GGCACTGCGG was run?
A: 1.01

Q: For GGCACTTGTG, which switch fluorescence ratio is on record?
A: 1

Q: With GGCACTTTTG as the sequence, how does the switch fluorescence ratio read?
A: 0.987

Q: Which switch fluorescence ratio does the source give for GGCAGAGTTG here?
A: 0.969

Q: With GGCAGATGCC as the sequence, how does the switch fluorescence ratio read?
A: 0.99

Q: With GGCAGGCCTA as the sequence, how does the switch fluorescence ratio read?
A: 1.06

Q: GGCAGGTCA was tested. Which switch fluorescence ratio did it give?
A: 0.988

Q: How did the switch fluorescence ratio turn out when GGCAGTAGAG was run?
A: 0.974

Q: How did the switch fluorescence ratio turn out when GGCAGTGATT was run?
A: 0.99

Q: With GGCATAGTT as the sequence, how does the switch fluorescence ratio read?
A: 1

Q: With GGCATATAC as the sequence, how does the switch fluorescence ratio read?
A: 2.07

Q: For GGCATCATCT, which switch fluorescence ratio is on record?
A: 0.964

Q: For GGCATCCGTA, which switch fluorescence ratio is on record?
A: 0.988

Q: With GGCATGAGCC as the sequence, how does the switch fluorescence ratio read?
A: 1.12

Q: Which switch fluorescence ratio does the source give for GGCATTCGGT here?
A: 0.99

Q: GGCATTCTTG was tested. Which switch fluorescence ratio did it give?
A: 1.01

Q: For GGCATTGCTT, which switch fluorescence ratio is on record?
A: 0.988

Q: How did the switch fluorescence ratio turn out when GGCCACATTG was run?
A: 0.964

Q: Which switch fluorescence ratio does the source give for GGCCATATTG here?
A: 1.04

Q: With GGCCATCCGC as the sequence, how does the switch fluorescence ratio read?
A: 1.43

Q: With GGCCCAGATG as the sequence, how does the switch fluorescence ratio read?
A: 2.24

Q: GGCCCCCGAA was tested. Which switch fluorescence ratio did it give?
A: 1.02

Q: How did the switch fluorescence ratio turn out when GGCCCCGGCT was run?
A: 1.04

Q: For GGCCCCTCTT, which switch fluorescence ratio is on record?
A: 1.03

Q: For GGCCCGG, which switch fluorescence ratio is on record?
A: 0.993

Q: Which switch fluorescence ratio does the source give for GGCCCTGGAC here?
A: 1

Q: Which switch fluorescence ratio does the source give for GGCCCTTAGG here?
A: 0.927

Q: With GGCCGAATTT as the sequence, how does the switch fluorescence ratio read?
A: 0.985

Q: GGCCGACAGA was tested. Which switch fluorescence ratio did it give?
A: 1

Q: For GGCCGAGACG, which switch fluorescence ratio is on record?
A: 0.953

Q: For GGCCGAGGCA, which switch fluorescence ratio is on record?
A: 1.02

Q: With GGCCGAGTTG as the sequence, how does the switch fluorescence ratio read?
A: 0.98

Q: How did the switch fluorescence ratio turn out when GGCCGATTCG was run?
A: 0.965

Q: GGCCGCACGA was tested. Which switch fluorescence ratio did it give?
A: 1.23

Q: For GGCCGCCATG, which switch fluorescence ratio is on record?
A: 1.02

Q: How did the switch fluorescence ratio turn out when GGCCGGCTTT was run?
A: 1.02

Q: GGCCGTCCT was tested. Which switch fluorescence ratio did it give?
A: 1.2

Q: With GGCCTAACAG as the sequence, how does the switch fluorescence ratio read?
A: 0.983

Q: How did the switch fluorescence ratio turn out when GGCCTAATTG was run?
A: 1.02

Q: For GGCCTGCAAC, which switch fluorescence ratio is on record?
A: 1.1

Q: With GGCCTTTCTT as the sequence, how does the switch fluorescence ratio read?
A: 0.991

Q: GGCGACAGCC was tested. Which switch fluorescence ratio did it give?
A: 0.989

Q: How did the switch fluorescence ratio turn out when GGCGACGGTT was run?
A: 0.989

Q: With GGCGATCCTT as the sequence, how does the switch fluorescence ratio read?
A: 1.01

Q: Which switch fluorescence ratio does the source give for GGCGCAAATT here?
A: 1.02

Q: How did the switch fluorescence ratio turn out when GGCGCAGCCG was run?
A: 0.951

Q: For GGCGCAGTTA, which switch fluorescence ratio is on record?
A: 1

Q: GGCGCCGATC was tested. Which switch fluorescence ratio did it give?
A: 1.03

Q: For GGCGCGTCGA, which switch fluorescence ratio is on record?
A: 0.977

Q: With GGCGCTCATT as the sequence, how does the switch fluorescence ratio read?
A: 1.05

Q: Which switch fluorescence ratio does the source give for GGCGGCGTC here?
A: 0.975

Q: GGCGGGCAGC was tested. Which switch fluorescence ratio did it give?
A: 1

Q: How did the switch fluorescence ratio turn out when GGCGGTTTAC was run?
A: 1.01

Q: For GGCGTACTAG, which switch fluorescence ratio is on record?
A: 1.03

Q: GGCGTCAGGT was tested. Which switch fluorescence ratio did it give?
A: 0.985

Q: GGCGTCTCAC was tested. Which switch fluorescence ratio did it give?
A: 1

Q: With GGCGTGATCC as the sequence, how does the switch fluorescence ratio read?
A: 1.06

Q: How did the switch fluorescence ratio turn out when GGCGTGCCAG was run?
A: 0.969

Q: How did the switch fluorescence ratio turn out when GGCGTGGCAG was run?
A: 1.02

Q: Which switch fluorescence ratio does the source give for GGCGTGGTTA here?
A: 1.01

Q: For GGCGTGGTTT, which switch fluorescence ratio is on record?
A: 1.01

Q: How did the switch fluorescence ratio turn out when GGCGTTGGTA was run?
A: 1

Q: For GGCTACCGTC, which switch fluorescence ratio is on record?
A: 0.97

Q: For GGCTACTAGG, which switch fluorescence ratio is on record?
A: 1.04

Q: How did the switch fluorescence ratio turn out when GGCTAGGCGC was run?
A: 0.974

Q: For GGCTAGGGCG, which switch fluorescence ratio is on record?
A: 1.03

Q: Which switch fluorescence ratio does the source give for GGCTAGTTTG here?
A: 0.998

Q: For GGCTATATTG, which switch fluorescence ratio is on record?
A: 1.02

Q: For GGCTATGAAG, which switch fluorescence ratio is on record?
A: 1.02

Q: Which switch fluorescence ratio does the source give for GGCTATTCGC here?
A: 1

Q: For GGCTCAAATT, which switch fluorescence ratio is on record?
A: 0.957

Q: How did the switch fluorescence ratio turn out when GGCTCAATGA was run?
A: 1.01

Q: Which switch fluorescence ratio does the source give for GGCTCCCGGT here?
A: 1.05

Q: Which switch fluorescence ratio does the source give for GGCTCTCAGG here?
A: 1.04

Q: For GGCTCTGAGC, which switch fluorescence ratio is on record?
A: 1.03

Q: GGCTGAAATT was tested. Which switch fluorescence ratio did it give?
A: 0.992

Q: With GGCTGACAGC as the sequence, how does the switch fluorescence ratio read?
A: 0.978

Q: Which switch fluorescence ratio does the source give for GGCTGAGCGC here?
A: 0.976

Q: Which switch fluorescence ratio does the source give for GGCTGAGTTG here?
A: 0.931

Q: With GGCTGATGCG as the sequence, how does the switch fluorescence ratio read?
A: 1.02

Q: With GGCTGCACTT as the sequence, how does the switch fluorescence ratio read?
A: 1.22

Q: How did the switch fluorescence ratio turn out when GGCTGCCTAT was run?
A: 1.03

Q: GGCTGGAGGA was tested. Which switch fluorescence ratio did it give?
A: 1.02

Q: GGCTGGCAGG was tested. Which switch fluorescence ratio did it give?
A: 1.04

Q: Which switch fluorescence ratio does the source give for GGCTGGGTCT here?
A: 0.995

Q: With GGCTGGGTTC as the sequence, how does the switch fluorescence ratio read?
A: 0.97

Q: For GGCTGTGGCA, which switch fluorescence ratio is on record?
A: 0.994

Q: GGCTGTTCGA was tested. Which switch fluorescence ratio did it give?
A: 0.995

Q: With GGCTGTTGCT as the sequence, how does the switch fluorescence ratio read?
A: 0.95

Q: Which switch fluorescence ratio does the source give for GGCTTAGAGG here?
A: 1

Q: Which switch fluorescence ratio does the source give for GGCTTAGG here?
A: 1.02

Q: How did the switch fluorescence ratio turn out when GGCTTATCTT was run?
A: 0.972

Q: How did the switch fluorescence ratio turn out when GGCTTCGTTG was run?
A: 0.993

Q: For GGCTTGGTCC, which switch fluorescence ratio is on record?
A: 1.07

Q: GGCTTTGTCT was tested. Which switch fluorescence ratio did it give?
A: 0.958

Q: GGGAACCTGG was tested. Which switch fluorescence ratio did it give?
A: 0.982

Q: Which switch fluorescence ratio does the source give for GGGAACGAAG here?
A: 0.943

Q: GGGAACGATG was tested. Which switch fluorescence ratio did it give?
A: 1.02

Q: With GGGAACGTGA as the sequence, how does the switch fluorescence ratio read?
A: 0.984
